Measured values taken from the supplement of paper PMC3334620.
Whole data set: some 33,000 sequences, median “E-score (-0.5 to 0.5)” near -0.016, cut for the highest 2% near 0.32. The list shows a part of the results.

Molecular target: T1, Stp1 (UniProt B3LFK1)
T1 sequence: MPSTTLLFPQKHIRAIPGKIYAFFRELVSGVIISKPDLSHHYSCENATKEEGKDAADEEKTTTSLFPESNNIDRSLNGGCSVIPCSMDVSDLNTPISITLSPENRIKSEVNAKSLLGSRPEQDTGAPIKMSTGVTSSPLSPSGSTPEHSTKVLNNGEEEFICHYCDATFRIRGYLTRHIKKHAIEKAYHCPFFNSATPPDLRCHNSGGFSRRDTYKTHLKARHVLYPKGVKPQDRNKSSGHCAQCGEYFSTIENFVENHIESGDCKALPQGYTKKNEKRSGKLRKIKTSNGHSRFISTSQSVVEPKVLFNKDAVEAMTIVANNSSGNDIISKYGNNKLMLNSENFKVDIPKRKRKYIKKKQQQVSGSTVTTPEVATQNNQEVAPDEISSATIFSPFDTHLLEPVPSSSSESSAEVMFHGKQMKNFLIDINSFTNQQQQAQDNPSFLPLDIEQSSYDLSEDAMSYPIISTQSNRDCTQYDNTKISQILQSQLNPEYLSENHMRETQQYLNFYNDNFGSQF
Test: PBM E-score (8-mer binding enrichment) (E-score (-0.5 to 0.5)); higher = stronger / more preferred TF binding; most listed sequences are background and not binding sites
Conditions: protein concentration: 200 nM; construct: GST-full length
Procedure, shortened: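 Bound GST-tagged yeast transcription factors, applied at about 100-200 nM to double-stranded universal all-10-mer Agilent arrays, were detected with fluorescent anti-GST. Scans were normalised with masliner. A modified Wilcoxon-Mann-Whitney statistic, the E-score, was assigned to each ungapped eight-base word pooled with its reverse complement by the Universal PBM Analysis Suite.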

Sequence | PBM E-score
TACTTCTA | 0.0861
AATACAGA | 0.0706
ACGAGAGG | -0.179
CGTACATA | 0.133
CATTCGGC | 0.155
GGCTGACA | 0.0532
AGCGGTCA | -0.123
TCTATTCA | 0.116
AGCAAGAT | 0.0141
AACGGGTC | -0.0829
CTCCCTTC | -0.335
CTCTTGAC | -0.0778
GTTTTGTA | 0.173
GACGCGAC | -0.0598
CAACAAAC | 0.203
GTGCACAC | -0.0838
TAGCCCAA | -0.127
CAGAACCG | 0.0388
GAACTATC | -0.184
CTAATCCA | -0.0678
CCGCCACC | -0.132
ACTCTGCG | -0.0491
ATAGCGCG | 0.136
ACACTCTG | -0.145
CATCGGCG | 0.0728

Sequence | PBM E-score
ACAGTGAC | -0.189
CGTCAATA | -0.0812
ATGCGGAC | 0.0964
CTGGTACC | -0.123
TTCGCCAA | -0.0507
GCTTCTCC | -0.305
AAATTTTG | 0.0658
ACTGTCCT | -0.097
AATTTCGG | 0.0123
AAGTCAGC | 0.0691
AGCACTGC | -0.154
ATTGCCAG | -0.132
AATACCAC | -0.0688
CTCTGGAC | -0.0647
CTCGGCTA | 0.0804
GCATAAGA | 0.0798
ATAGTACC | -0.0252
GGTACCAC | -0.186
ATTTGGCG | 0.0371
AGACTCGA | -0.1
AGGCCGAC | -0.315
TTGGCCAA | 0.0581
AAGAGTAT | -0.0582
AGCACAGC | 0.278
TGGCTTAA | 0.193

Sequence | PBM E-score
AAGGTTCA | 0.0509
TCGCTAGA | -0.104
GCGCTAGA | 0.0885
TAACTCTA | -0.181
CAGAACAC | -0.201
AAGCCTGG | -0.286
CCTGTGGC | -0.0181
ATGGATCA | -0.032
CTGTCCGA | -0.111
CATATCCA | -0.0445
CACAAGAC | -0.161
AACAGGCT | -0.132
CAAATCCC | -0.133
GTAAAAAC | 0.0895
GCTCGGAA | 0.0125
GCTCCCTA | -0.215
CCTAAACG | 0.015
ACCGAACG | 0.249
GCGCGAAA | 0.292
AGGCTACG | -0.129
AGTTTTAA | 0.161
AATGTAGG | -0.132
AGTCCCTG | -0.3
CCCTAGAC | -0.188
GACTTCGC | -0.0576

Sequence | PBM E-score
CTGTTTGA | -0.00659
CGCTGTTC | -0.108
AGCTGTGG | -0.18
CTAGGCCC | -0.353
AGTCGCTA | -0.338
CATAGCCA | -0.0996
AGCGGGTG | -0.214
GCAAGGGA | -0.0808
ACCTTCAC | -0.16
ATATTATC | 0.15
GATTACAC | 0.0767
ACGTCACC | -0.295
CGATAATC | -0.128
CACTGAAA | 0.161
GACCGTAC | -0.0763
ATGTCCAC | -0.152
ATCCTATA | 0.0456
GTGGGACA | -0.201
CAAGTCCC | -0.308
AGGTATTC | -0.0247
AATACGCA | 0.0268
ACGCGGGC | 0.103
AAATCAAC | -0.174
CTCGCTCC | 0.219
ACACCAGG | -0.258

Sequence | PBM E-score
CGAGCCAA | -0.0114
CCACGGAC | -0.0119
AGCGAGCA | -0.134
GTCGCCTA | 0.124
AAGAAACG | 0.147
TCAGTCGA | -0.0184
CCTGAGAA | -0.129
CCCGTGTA | 0.0889
ATATACTA | 0.281
CAGAGCGG | -0.0315
CCTGCCTA | -0.0123
AGTTGTTG | -0.0282
ATCATACC | 0.12
GAAGGCGA | 0.129
GACATGTC | -0.251
ATTATCTA | 0.271
ACCCGGAC | -0.232
AAAAAACA | 0.166
GTTATGCA | -0.175
GGCTACCC | -0.124
GGATCCGA | -0.221
CGTTCGGC | 0.222
AGTATATC | 0.0639
ATGTAGGA | -0.0969
ATCGACAT | 0.118

Sequence | PBM E-score
CGGTTTTC | 0.156
CGTAACTA | -0.00679
AAAAGAGC | -0.103
CGGGCTTA | -0.111
ACCTCATC | -0.232
CGGACCCG | -0.109
AGAGCTTA | 0.00485
ATCTCATA | -0.0182
CTACCATC | -0.197
GAGGCCGC | 0.095
CCCGGAAC | -0.128
AACTGTAA | 0.138
GCTGCACC | -0.289
CGCATTAC | -0.0452
GAGCCTTA | 0.222
GACTTGGC | -0.232
ATGACAAG | -0.0428
CGTCGGCC | -0.0975
ACCCGTAA | 0.0634
CGCGGGGA | 0.0818
CCCTCGAC | -0.176
AATACTAT | 0.0992
GTCATTCA | 0.0248
GCAAAACA | 0.0992
GTACGTAC | -0.0763

Sequence | PBM E-score
AGAGATAC | 0.18
CCAAGAGG | -0.0517
AGAGCAAA | -0.0976
CAGGAGAG | -0.238
AGGGTGTC | -0.266
CCTGTGTA | 0.033
CTGCAACA | 0.0237
ATCTATCA | 0.0923
AAGATATA | 0.1
ACTTCTGC | 0.0768
CATGACGC | 0.0645
ATTATGGG | -0.0601
GTCTGCTA | 0.0581
CCCCCTCG | -0.353
CAAGACCA | -0.15
AAGGAGGC | -0.122
ATAGAATA | 0.138
CAGACTAA | -0.0572
ATGTACCG | 0.0424
AAGGAGTG | -0.0636
ACCAATAT | 0.012
CGGCTCTA | 0.425
